# Measurements from article PMC5700166.
# The list shows a part of the results, in another mix than the full data. For part of these data: The list includes weakly bound sequences.
# Assays:
# Assay in all cases: protein-binding microarray (PBM)
# Settings in all cases: PBM: ~300 nM protein, 6 mM HEPES pH 7.8, 80 mM KCl, 0.5 mM EDTA, 0.5 mM EGTA, 6% glycerol, 35 ng/ul poly-dIdC, 1% milk, 1 h, room temperature; Ap Aiptasia and Nv Nematostella (sea anemones) / Co Capsaspora / Aq Amphimedon (sponge) / Dm Drosophila / Hu human; RHD is the Rel homology domain; high values mean tight binding; most listed sequences are background and not binding sites; double strand, one strand shown
# [1] = target: T1, GST-Nv-NF-kB (Cys allele) (UniProt E5G601)
# T1 sequence: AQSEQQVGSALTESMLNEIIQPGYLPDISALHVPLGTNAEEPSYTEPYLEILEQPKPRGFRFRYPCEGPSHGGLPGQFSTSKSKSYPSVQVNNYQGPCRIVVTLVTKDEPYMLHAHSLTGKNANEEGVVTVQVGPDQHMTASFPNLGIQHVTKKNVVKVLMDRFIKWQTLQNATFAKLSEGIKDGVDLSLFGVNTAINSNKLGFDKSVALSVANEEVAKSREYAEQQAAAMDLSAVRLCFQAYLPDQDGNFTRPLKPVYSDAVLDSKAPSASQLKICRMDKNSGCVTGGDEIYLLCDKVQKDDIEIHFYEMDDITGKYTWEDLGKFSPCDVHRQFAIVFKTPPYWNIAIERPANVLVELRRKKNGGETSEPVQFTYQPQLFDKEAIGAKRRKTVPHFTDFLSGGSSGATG
# [2] = target: T2, GST-Aq-NF-kB (UniProt A9Y5G7)
# T2 sequence: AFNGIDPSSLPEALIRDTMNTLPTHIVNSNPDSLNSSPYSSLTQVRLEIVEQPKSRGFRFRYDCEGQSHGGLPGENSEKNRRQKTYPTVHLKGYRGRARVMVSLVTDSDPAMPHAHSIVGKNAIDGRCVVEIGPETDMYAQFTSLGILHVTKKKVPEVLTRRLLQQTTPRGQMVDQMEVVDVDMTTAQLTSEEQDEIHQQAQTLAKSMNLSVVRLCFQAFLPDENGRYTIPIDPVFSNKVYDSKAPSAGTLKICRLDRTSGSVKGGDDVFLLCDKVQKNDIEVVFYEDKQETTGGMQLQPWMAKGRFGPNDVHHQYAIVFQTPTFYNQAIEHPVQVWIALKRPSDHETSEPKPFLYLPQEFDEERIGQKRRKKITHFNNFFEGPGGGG
# [3] = target: T3, GST-Co-NF-kB (UniProt F1ARL5)
# T3 sequence: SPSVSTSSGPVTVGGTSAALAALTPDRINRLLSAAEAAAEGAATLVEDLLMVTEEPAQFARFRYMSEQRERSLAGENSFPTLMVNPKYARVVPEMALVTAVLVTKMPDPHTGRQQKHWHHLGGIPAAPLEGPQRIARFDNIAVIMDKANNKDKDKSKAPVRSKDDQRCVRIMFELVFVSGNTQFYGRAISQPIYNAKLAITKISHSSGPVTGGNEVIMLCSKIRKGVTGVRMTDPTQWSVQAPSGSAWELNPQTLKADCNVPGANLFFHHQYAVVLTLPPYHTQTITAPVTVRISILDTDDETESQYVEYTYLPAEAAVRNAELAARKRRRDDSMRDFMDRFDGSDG
Sequence,binding signal [1],binding signal [2],binding signal [3]
CCGATTAACATCAGGGGGGGGCATGATGTTAATCGGGTCTTGATTCGCTTGACGCTGCTG,4.84 z-score,3.82 z-score,–
CCGATTAACATCAAAGCCCCCCCTGATGTTAATCGGGTCTTGATTCGCTTGACGCTGCTG,4.23 z-score,5.12 z-score,–
CCGATTAACATCAGGAAAGTCCCTGATGTTAATCGGGTCTTGATTCGCTTGACGCTGCTG,10.6 z-score,9.81 z-score,0.673 z-score
CCGATTAACATCACACTTTTCCCTGATGTTAATCGGGTCTTGATTCGCTTGACGCTGCTG,4.45 z-score,3.57 z-score,4.46 z-score
CCGATTAACATCAGGAAATCCCATGATGTTAATCGGGTCTTGATTCGCTTGACGCTGCTG,3.68 z-score,5.09 z-score,1.17 z-score
CCGATTAACATCATGTATGCCCCTGATGTTAATCGGGTCTTGATTCGCTTGACGCTGCTG,1.71 z-score,2.51 z-score,–
CCGATTAACATCAGGGAATACCCTGATGTTAATCGGGTCTTGATTCGCTTGACGCTGCTG,11.2 z-score,10.2 z-score,–
CCGATTAACATCAGATTATCCCCTGATGTTAATCGGGTCTTGATTCGCTTGACGCTGCTG,6.05 z-score,4.98 z-score,–
CCGATTAACATCAAAGAGCCCCCTGATGTTAATCGGGTCTTGATTCGCTTGACGCTGCTG,4.16 z-score,5.01 z-score,–
CCGATTAACATCACAGTTTCCCCTGATGTTAATCGGGTCTTGATTCGCTTGACGCTGCTG,7.28 z-score,4.9 z-score,–
CCGATTAACATCACCGCCCCACGTGATGTTAATCGGGTCTTGATTCGCTTGACGCTGCTG,1.73 z-score,1.28 z-score,–
CCGATTAACATCAATAATTCCCCTGATGTTAATCGGGTCTTGATTCGCTTGACGCTGCTG,10.6 z-score,7.59 z-score,–
